# Source: the RNAGym collection of RNA variant scans (doi:10.1093/nar/gkz1192)
# Read counts are not given, so values of variants with three or more changes are uncertain.
# B1: CPEB3 Ribozyme (parent)
# chain: UAACAGGGGGCCACAGCAGAAGCGUUCACGUCGCAGCCCCUGUCAGAUUCUGGUGAAUCUGCGAAUUCUGCUGUAUAUCUC
# Variants of: B1
# Assay: self-cleavage, relative activity (ratio to wild type); higher = more cleavage; in vitro, sequencing
# Method in brief: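 Relative activity was defined as the cleaved/total read fraction for a variant divided by the same fraction for the unmutated ribozyme. CPEB3 self-cleaving ribozyme libraries were made by rounds of error-prone PCR, barcoded, and transcribed in vitro with T7 RNA polymerase for 5 hours at 37°C, and cleavage ran through transcription plus a 15 min DNase I step before EDTA. Illumina sequencing of template-switched reverse transcripts gave the reads, and DNA sequencing mapped the barcodes. Averages come from three batches, using variants with at least 5 reads.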
row,Variant,self-cleavage
1,A18C A20G A57U,0.23
2,A18C A20G C40A U43C A65G,0.14
3,A18C A20U U54G A65G U69A,0.04
4,A18C A21C U31C C37U U67C,0.01
5,A18C A21G A56U U58A,0.05
6,A18C A21G U25A C62U,0.06
7,A18C A21G U54C U76A,0.22
8,A18C A28C G36A C71U,0.07
9,A18C A28C U51C A56G U80C,0.07
10,A18C A28G C32U U49C G52C U60A,0.05
11,A18C A28G U31C U41C U69C U72A,0.07
12,A18C A28G U72A,0.15
13,A18C A28U U41C,0.17
14,A18C A28U U51G U54C,0.18
15,A18C A28U U54C,0.28
16,A18C A35G U74C,0.53
17,A18C A35U C62U,0.15
18,A18C A35U U51A,0.11
19,A18C A45G A65G,0.23
20,A18C A56G U60A U76C,0.09
21,A18C A56G U72C,0.26
22,A18C A56G U80C,0.46
23,A18C A56U C68A,0.12
24,A18C C23U A45C U48C G70U U78C,0.15

row,Variant,self-cleavage
1,A18C C27U U51C A56G U80C,0.18
2,A18C C29G C40U U67C,0.13
3,A18C C32U A35G A45G,0.04
4,A18C C32U A45C A65G,0.08
5,A18C C32U A47G C50A U54C,0.11
6,A18C C32U A75G,0.06
7,A18C C32U U41C A45G U66C,0.04
8,A18C C40A U72C,0.3
9,A18C C40U A77G,0.36
10,A18C C44A U67C U78C,0.06
11,A18C G19C U49A U54A,0.1
12,A18C G19U A35U C40G U49C,0.07
13,A18C G22A A35G,0.06
14,A18C G22A U31C A56C,0.06
15,A18C G22C A28U U78C,0.06
16,A18C G22U C29U U51C C79U,0.25
17,A18C G30A A35G,0.21
18,A18C G33A U43C U66C U69C U72C U74A,0.09
19,A18C G33A U48C U49C C62U C68A,0.12
20,A18C G33A U48C U49C U54C C62U,0.09
21,A18C G42A G53A,0.09
22,A18C G52U A64G,0.34
23,A18C U25A C32A U74C,0.06
24,A18C U25A C34G C38G U48C U54A A64G,0.04

row,Variant,self-cleavage
1,A18C U25A U69C A77C C81A,0.1
2,A18C U25C G46U,0.2
3,A18C U25C U31A U43A C59U U67A,0.18
4,A18C U25C U41A U54C U66C,0.07
5,A18C U25C U51A U72C,0.13
6,A18C U25C U69A U76A,0.15
7,A18C U25C U72C,0.17
8,A18C U26A C27U A47G U51G,0.08
9,A18C U26A G30U C38U U67C,0.05
10,A18C U26C A45G A57G,0.34
11,A18C U26C A56U A64U,0.18
12,A18C U26C G53A U72A,0.09
13,A18C U26C G55A,0.07
14,A18C U26C U41A,0.31
15,A18C U31A A56G A65U,0.1
16,A18C U31C U54C C59A,0.1
17,A18C U31C U60C,0.28
18,A18C U41A U48C,0.23
19,A18C U41C A57C U60C U67A,0.02
20,A18C U41C U69C,0.27
21,A18C U43C C71G A77U,0.06
22,A18C U43C U51C A64U U78C,0.1
23,A18C U48C G52A,0.33
24,A18C U48C U60C U69C U78A,0.03

row,Variant,self-cleavage
1,A18C U49A A75U,0.49
2,A18C U49A U69G A75U,0.96
3,A18C U51A U72C,0.54
4,A18C U51C A56G U80C,0.34
5,A18C U51C A65G,0.28
6,A18C U51C G70C U80C,0.17
7,A18C U51C U69C A77G U80C,0.27
8,A18C U51G A64U U72A,0.15
9,A18C U51G U54C A64U,0.29
10,A18C U54A G63A,0.49
11,A18C U78A C79G,0.24
12,A18G A20C A35U,0.11
13,A18G A20C C32A U69A,0.24
14,A18G A20C U58A U72C,0.08
15,A18G A20G A21G G30A,0.45
16,A18G A20G A28G U60C U78C,0.34
17,A18G A20G A28U,0.35
18,A18G A20G A45U,0.36
19,A18G A20G A45U A56G U60C,0.11
20,A18G A20G A45U U51C,0.1
21,A18G A20G A47U A56G,0.3
22,A18G A20G A56U A77G U80A,0.15
23,A18G A20G C23G U25C A35G A56G A64G,0.06
24,A18G A20G C23U U25C A45U,0.15

row,Variant,self-cleavage
1,A18G A20G C32U A45G,0.06
2,A18G A20G C34G U48C U80C,0.39
3,A18G A20G G24A U41A G53C U78C,0.08
4,A18G A20G G36C A64G U67C,0.05
5,A18G A20G G36U U80A,0.09
6,A18G A20G U25C,0.6
7,A18G A20G U25C A47G,0.26
8,A18G A20G U26A A35G,0.65
9,A18G A20G U26C U49C U67A U76A,0.04
10,A18G A20G U31C U60G A75U,0.19
11,A18G A20G U31C U67A,0.08
12,A18G A20G U41C A56U U58C A65U U72A,0.18
13,A18G A20G U41C U60C,0.13
14,A18G A20G U49C G53U,0.25
15,A18G A20G U54C,0.37
16,A18G A20G U58C A64G U74A,0.19
17,A18G A20G U66C,0.56
18,A18G A20U A21G U51C,0.08
19,A18G A20U A45G,0.07
20,A18G A20U A45G U49C,0.25
21,A18G A20U A47G U54A,0.18
22,A18G A20U A64U,0.21
23,A18G A20U C23U A35G U41A U80C,0.02
24,A18G A20U C23U U31C U43A A45G C71U,0.02

row,Variant,self-cleavage
1,A18G A20U C39A U60C A65G U72C U78C,0.02
2,A18G A20U G33U U43A A77G,0.05
3,A18G A20U G61A A64U,0.09
4,A18G A20U U25A U67A U69C,0.15
5,A18G A20U U26A C71A,0.08
6,A18G A20U U26C A35G C37U U43C A77G,0.03
7,A18G A20U U31C U43C U60C,0.56
8,A18G A20U U48C U49C U74C,0.1
9,A18G A20U U49C A64U,0.13
10,A18G A20U U67C,0.14
11,A18G A20U U69A,0.19
12,A18G A20U U72C,0.39
13,A18G A21C A28U A35G A45G A56G A75G,0.03
14,A18G A21C A45U U54A A65G,0.08
15,A18G A21C U25A A65G,0.39
16,A18G A21G A28G,0.45
17,A18G A21G A35G,0.75
18,A18G A21G A35G C44U U72C,0.07
19,A18G A21G A35G U66C,1.16
20,A18G A21G A35U U54C A75U,0.3
21,A18G A21G A45U A57G U60C,0.06
22,A18G A21G A45U U48C U66G,0.16
23,A18G A21G A47G,0.36
24,A18G A21G A56U,0.35

row,Variant,self-cleavage
1,A18G A21G A65G A75U U76A A77G,0.24
2,A18G A21G A75U,0.27
3,A18G A21G C27A U54G U60A,0.23
4,A18G A21G C27G A47U U67G,0.04
5,A18G A21G C29U U31C U43C A56U U60C,0.03
6,A18G A21G C32U U72C U78C,0.07
7,A18G A21G C39U G52A A57G U69C,0.36
8,A18G A21G C39U U48C U51A U76C,0.2
9,A18G A21G C44A A45G U72C U80C,0.44
10,A18G A21G G30A,0.59
11,A18G A21G G42U U51C U54A,0.07
12,A18G A21G U25A A47G U54C A64G U69C,0.08
13,A18G A21G U25A C29U U67C,0.09
14,A18G A21G U25A U48C,0.31
15,A18G A21G U25C G42U U51C,0.05
16,A18G A21G U26C A28U A65G,0.17
17,A18G A21G U26C U49A U51A G73C,0.05
18,A18G A21G U26C U69A,0.07
19,A18G A21G U31A U67A,0.07
20,A18G A21G U31C G33A,0.29
21,A18G A21G U31C G33A A56U U72A A75G,0.04
22,A18G A21G U41A U43A A64G,0.06
23,A18G A21G U41C A45G U66C U69A,0.26
